± gives the standard deviation of the averaged measurements. The list shows a part of the results.
system: PfAP2-G AP2 domain (GST-tagged); assay: gcPBM binding intensity (ln(normalized median fluorescence intensity)); higher = stronger DNA binding
Outline: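 An Agilent 4 × 180k array of primer-extended double-stranded 36-bp intergenic genomic probes, with negative controls, was incubated for 1 h with GST-tagged P. falciparum DNA-binding domains expressed in E. coli. Alexa488 anti-GST antibody detected bound protein, scanned at 488 nm. Binding intensity is the highest Masliner-normalised natural-log median intensity across replicate spots of either probe orientation.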

Sequence	gcPBM binding intensity (ln)
TATATATATATATTATGTACGTATCAGTTTGTATGT [XGTACX_site695]	11.4 ± 0.87
TTTTTTTCTTTTTCAAAAAAAAAAAAAAAAAAAATA [GTGCAC_negctrl_site329]	9.73 ± 0.47
GCTAGTTTTTTTTGGCGTACAGTACCGGTTTACTTT [XGTACX_site2606]	11.6 ± 1
ACCCATTTTAATTTAGTGCACATTTTACCTTTATAC	10.5 ± 0.26
TTCTGCAGCAATGTTTTTTTTAAATATTTATATGGT [CACACA_negctrl_site1815]	9.875 ± 0.021
AAAAAAATAACAAAGTGTACTTTTATATTTTACATA [XGTACX_site8954]	11.3 ± 0.93
TTCCTCTTAATATGTGCACACTAAATTATAACATAA [CACACA_site3260]	10.6 ± 0.34
CATACCATACATAAAACACACAAAATTTACATAATA [CACACA_site3100]	9.99 ± 0.12
TATAGTTTTATTATTTATGTGTTAAAATTATACAAG [TGCATGCA_negctrl_site246]	9.79 ± 0.15
TTAGCTCAATTTTTGGGTACACACAAATGTATAATA [XGTACX_site5003]	11.4 ± 0.93
GAAAAATGTAAATACATATATGTACACAAATATATA [GTGCAC_negctrl_site557]	11.6 ± 0.96
CAATTTGGTGTACAGGTGCACATGCCTCACGATAAA [GTGCAC_site9650]	11.6 ± 0.92
AAAAAAAAAAAAAAATGTACATATTAAGTATAATTA [XGTACX_site4616]	11 ± 0.65
ATTCTAAATTAAAATACACACATATATACATAATAT [CACACA_site2792]	9.985 ± 0.021
AATATTTATAAATTTACACACACACGGGTGAACATA [CACACA_site6979]	10.3 ± 0.13
TTTAATTCCATAAGTAAACACACAAATGCCAAAATT [CACACA_site9049]	10.25 ± 0.071
TATGTAAAAACAGGCACACATATATCATATATATAT [CACACA_site619]	10.1 ± 0.32
AAAAAAAAAAAAAAAAGTACATAATATAAAATCTAA [XGTACX_site6019]	11.6 ± 0.95
TATGTATGCCTGTTTTGTACTTAAGAAAATGTTGCT [XGTACX_site8443]	11 ± 0.57
TATAAACATAAATATACACACAAACATCTATGTATT [CACACA_site4804]	9.79 ± 0.042
TATAAATATATATGTACACACATATACATGTTGAAT [CACACA_site3118]	11.3 ± 0.79
TAAAACATCAAGGGGTGTACAAAAAAGATGAACAGG [XGTACX_site6929]	11.2 ± 0.64
AAAAAAAAAAAAACTACACACATAAAATATATTGTG [CACACA_site805]	10.07 ± 0.071

Sequence	gcPBM binding intensity (ln)
ATTGGGTTCATCAGCACACACAACATCATGTAATAA [CACACA_site5093]	10.3 ± 0.4
AGAGCATAATAAAACACACACATACATACATATATA [CACACA_site935]	9.94 ± 0.028
AGGCACTTATAATAATGTACATAAATAAAAAGAAAA [XGTACX_site6037]	11.1 ± 0.54
AAAAAAAAATATCACACACACATAAATATAAACCAA [CACACA_site2279]	10.1 ± 0.11
TTTTCAATATATATTTGTACTTTATTTTATGATATT [GTGCAC_negctrl_site732]	11.2 ± 0.75
GCATTCATTTTTAATACACACAAAAAAAAAATAAAA [CACACA_site2408]	10.2 ± 0.42
ACTATTAACAGTGTAGTGCAAAAAGGTTAATTATTA	10.2 ± 0.15
TAAATGTCCTTATTTGCACACACACCGATAAGAAAT [CACACA_site5723]	11 ± 0.78
TCTATGTAGTTTTTATGTACTAAATAAATAAATAAA [XGTACX_site2599]	11 ± 0.8
TAGAAGCAGAAACACACACACATACATACACATACA [CACACA_site1467]	10.1 ± 0.13
TACATATATATTTGTTCACACACACCCAAAAAAAAA [CACACA_site8788]	10.4 ± 0.31
TATTTTACACATTTACGTACATAAATATATATATAT [XGTACX_site8788]	11.6 ± 0.95
TACGCACAAAAATATACACACACACCGATATATTTA [CACACA_site9213]	10.1 ± 0.23
AGACATTTTTAAGCAAAACATTCATCATCTTATAAT [CACACA_negctrl_site1539]	9.7 ± 0.19
ATATTGAATTCCAACACATGCAAAACTTTCGGTTTT [TGCATGCA_site485]	9.84 ± 0.12
AACAACTATTAATTTACACACATGTATATATCTTAC [CACACA_site7459]	10.06 ± 0.049
TATTAAAAGGTGAGTACACACATATATGCGTATATA [CACACA_site2102]	11.5 ± 0.81
CTAACAACCAAACGCACACACACAAAAAAAAAAATA [CACACA_site400]	10.3 ± 0.47
TTTGAAATGATATATAAACACACATATATATATATA [CACACA_site9170]	10.1 ± 0.42
TAAACAGAAGCACATACACACACTCAAAAAAAAAAA [CACACA_site3051]	10.2 ± 0.4
AAAATACATAAACACACACACACACCGATATATATA [CACACA_site9186]	9.97 ± 0.15
CACAAACACCCAAACACACACACACCGACATACATA [CACACA_site4410]	10.2 ± 0.27
